Molecular target: S-RBD/ACE2 association at the HEK293T-ACE2 cells surface (Severe acute respiratory syndrome coronavirus 2, UniProt P0DTC2)
Test: Cellular S-RBD/ACE2 interaction model, flow cytometry on HEK293T-ACE2 cells

For `C(=C\c1nc2ccccc2s1)/c1cccc(N(c2cccc(/C=C/c3nc4ccccc4s3)c2)c2cccc(/C=C/c3nc4ccccc4s3)c2)c1` [TP m 3BTZ compound, Tris {3-(2-(benzothiazole-2-yl)vinylphenyl}amine)], the “S-RBD/ACE2 association at the surface of the cell” value was “decreased the efficiency of S-RBD/ACE2 association”.

From patent EP4173621A1 (priority 2021, dated 2023)
